Hit rate of the full screen: of about 110,000 compounds, about 230 (0.21%) showed an effect of 50% or more. Some of the results follow.

This note sets out measurements from publication PMC6919601, “Identification of Plasmodium dipeptidyl aminopeptidase allosteric inhibitors by high throughput screening” (PLoS ONE, 2019).
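Further: 30 min substrate incubation versus DMSO and 10 µM JCP410 controls.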

For the assay, the target named is DPAP1 (Plasmodium falciparum, UniProt Q8IIJ9). In words: primary screen, percent inhibition; read by cleavage of a fluorogenic dipeptide substrate; higher = more effect of the substance. The arrangement: species or system P. falciparum D10 trophozoite lysates; single well.
DPAP1, sequence (Q8IIJ9 whole entry, looked up): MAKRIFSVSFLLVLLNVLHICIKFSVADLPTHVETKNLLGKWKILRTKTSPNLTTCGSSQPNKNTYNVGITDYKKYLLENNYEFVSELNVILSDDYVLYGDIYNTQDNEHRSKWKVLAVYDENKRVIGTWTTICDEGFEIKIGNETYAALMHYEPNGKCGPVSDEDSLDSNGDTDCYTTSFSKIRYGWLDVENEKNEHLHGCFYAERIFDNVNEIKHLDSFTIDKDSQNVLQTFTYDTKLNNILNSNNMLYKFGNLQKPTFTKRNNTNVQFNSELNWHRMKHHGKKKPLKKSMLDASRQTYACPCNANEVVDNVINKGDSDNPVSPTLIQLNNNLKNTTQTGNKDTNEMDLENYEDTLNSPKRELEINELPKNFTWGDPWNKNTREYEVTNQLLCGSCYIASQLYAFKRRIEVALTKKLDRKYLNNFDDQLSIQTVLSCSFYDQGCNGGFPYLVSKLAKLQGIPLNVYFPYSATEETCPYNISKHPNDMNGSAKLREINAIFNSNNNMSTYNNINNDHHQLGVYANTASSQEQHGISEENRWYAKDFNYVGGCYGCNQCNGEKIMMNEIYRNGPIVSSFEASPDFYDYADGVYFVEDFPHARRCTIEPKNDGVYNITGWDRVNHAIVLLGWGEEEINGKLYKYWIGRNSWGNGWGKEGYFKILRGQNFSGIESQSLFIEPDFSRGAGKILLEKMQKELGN
Turning to `Oc1nnc(-c2ccc(Cl)cc2)c2ccccc12`, the “% Inhibition @ 10 uM” value was -3.03%.

Consider `CCC(C)NS(=O)(=O)c1ccc(OCC(=O)N2CCN(c3cc(Cl)ccc3C)CC2)cc1` (centres unmarked), for which the “% Inhibition @ 10 uM” value was -0.545%.

Take `Cc1cc(/C=C2/C(=N)N3C(=NC2=O)SN=C3S(C)(=O)=O)c(C)n1-c1ccc(C(C)C)cc1`: the “% Inhibition @ 10 uM” value is reported as -1.58%.

`CCOc1ccc(OCc2ccc(C(=O)Nc3cccnc3)o2)cc1`: the “% Inhibition @ 10 uM” value was -4.82%.

Regarding `Cc1cc(C(=O)NCCCN2CCOCC2)c2c(C)nn(-c3ccccc3Cl)c2n1`, the “% Inhibition @ 10 uM” value is on record as -1.3%.

For the compound `CN(Cc1ccccc1)C(=O)c1noc2c1COc1ccccc1-2`, the “% Inhibition @ 10 uM” value is 7.85%.

`CCNc1nc(NCC)nc(Oc2ccc(OCc3ccccc3)nn2)n1`: the “% Inhibition @ 10 uM” value is listed as -4.49%.

On to `C=CCSc1nnc2c(n1)[nH]c1ccccc12`, for which the “% Inhibition @ 10 uM” value was found to be 36.9%.

For `O=C(NCc1ccc2c(c1)OCO2)c1ccc(CSc2nc3ccncc3[nH]2)cc1`, the “% Inhibition @ 10 uM” value worked out at 10.7%.

In the case of `O=C(CSc1nnc(-c2cccs2)n1-c1ccccc1)Nc1ccnc2ccccc12`, the “% Inhibition @ 10 uM” value came to 0.9%.

For the compound `COc1ccc(Oc2coc3cc(OCC(=O)O)ccc3c2=O)cc1`, the “% Inhibition @ 10 uM” value is reported as 13.2%.

On to `CCOCCCNS(=O)(=O)c1ccc(-c2ccc(O)nn2)o1`, for which the “% Inhibition @ 10 uM” value turned out to be 1.75%.

`CS(=O)(=O)c1ccc2nc(NC(=O)c3ccco3)sc2c1`: the “% Inhibition @ 10 uM” value is on record as -0.661%.

In the case of `COc1cc(C(=O)N(Cc2ccco2)Cc2ccc(C)o2)cc(OC)c1OC`, the “% Inhibition @ 10 uM” value is recorded as -1.07%.

For the compound `O=C(O)CCn1nc(Nc2ccccc2)n(-c2ccccc2)c1=S`, the “% Inhibition @ 10 uM” value is -1.69%.

For `CCS(=O)(=O)c1nc2ccccc2n1Cc1ccccn1`, the “% Inhibition @ 10 uM” value is on record as -3.34%.

With `COC(=O)Nc1sc2c(c1C#N)CCC(C(C)(C)C)C2` (centres unmarked), the “% Inhibition @ 10 uM” value is given as -0.988%.

As for `O=C(c1cnn2ccccc12)N1CCN(C2CCCCC2)CC1`, the “% Inhibition @ 10 uM” value stood at 3.59%.

Turning to `COc1ccc(/C=C2/SC(=O)N(CC(=O)Nc3ccccc3)C2=O)cc1O`, the “% Inhibition @ 10 uM” value was -4.59%.

As to `COc1ccc(-c2noc(CC(=O)Nc3ccc(NC(C)=O)nc3)n2)cc1`, the “% Inhibition @ 10 uM” value is reported as -1.39%.

Turning to `CC(C)Nc1nc2ccccc2n2cnnc12`, the “% Inhibition @ 10 uM” value was -4.21%.

Regarding `CCOc1ccc(CCNC(=O)c2cc3ccc4cccnc4c3[nH]2)cc1OCC`, the “% Inhibition @ 10 uM” value was found to be 13.7%.

As to `CCN1CCN(C2CCc3ccccc3C2)CC1` (centres unmarked), the “% Inhibition @ 10 uM” value was -1.96%.

With `COc1ccc(C(=O)Nc2ccc(C)c(C)c2)cc1OC`, the “% Inhibition @ 10 uM” value stood at 3.24%.

With `O=C(COc1ccc(Cl)c(Cl)c1)N(Cc1ccc(Cl)cc1Cl)c1cccc(Cl)c1`, the “% Inhibition @ 10 uM” value is reported as -5.23%.

For the compound `N#CC1=C(NC(=S)NC(=O)c2ccccc2)c2ccccc2CC12CCCCC2`, the “% Inhibition @ 10 uM” value is on record as 2.58%.

Turning to `Cn1c(Sc2ccnc3cc(Cl)ccc23)cc(=O)n(C)c1=O`, the “% Inhibition @ 10 uM” value is on record as 18%.

With `O=c1c2cc3c(=O)n(Cc4cccs4)ccc3nc2ccn1Cc1cccs1`, the “% Inhibition @ 10 uM” value is given as 2.39%.

On to `O=C(NCCc1cccs1)c1cc2c(Cl)ccc3c2n1CCO3`, for which the “% Inhibition @ 10 uM” value is reported as 0.453%.

On to `FC(F)(F)c1ccc(CN2CCN(c3ncccn3)CC2)cc1`, for which the “% Inhibition @ 10 uM” value is 6.33%.

As to `Cn1nc(C(=O)NCCc2ccsc2)c2c1-c1ccccc1SC2`, the “% Inhibition @ 10 uM” value is 27.3%.

`O=C(O)CSc1cc[n+](CC(=O)c2ccccc2)cc1`: the “% Inhibition @ 10 uM” value is -0.947%.

Regarding `CCOc1ccc(CNS(=O)(=O)c2c(C)nc3sccn3c2=O)cc1OC`, the “% Inhibition @ 10 uM” value is given as -4.99%.

For `CC(C)(C)/N=C(\NS(=O)(=O)c1ccc(Cl)cc1)c1ccccc1`, the “% Inhibition @ 10 uM” value is given as -1.69%.

Consider `COc1cccc(C2C=C(c3ccc(F)cc3)Nc3nc4ccccc4n32)c1OC` (centres unmarked), for which the “% Inhibition @ 10 uM” value is listed as -1.62%.

For the compound `COC(F)(C(=O)Nc1ccc(Br)c2cccnc12)C(F)(F)F` (centres unmarked), the “% Inhibition @ 10 uM” value is recorded as -3.06%.

As to `O=C(O)c1cc2c(s1)CCCC2`, the “% Inhibition @ 10 uM” value worked out at 1.22%.

As for `Cc1ccc(-c2nc3scc(CCNC(=O)c4ccc(Br)cc4)n3n2)cc1`, the “% Inhibition @ 10 uM” value is recorded as 5.7%.

As for `CC1=CN2C(=N)/C(=C/c3cc(C)n(-c4cccc(C)c4)c3C)C(=O)N=C2S1`, the “% Inhibition @ 10 uM” value is on record as -6.78%.

`CCOc1ccc2nc(NC(=O)c3cc(Br)ccc3Cl)sc2c1`: the “% Inhibition @ 10 uM” value is reported as -0.769%.

Regarding `COc1ccc(C2CC(=O)Nc3c2ccc2ccccc32)cc1` (centres unmarked), the “% Inhibition @ 10 uM” value is recorded as -4.03%.

`COC(=O)c1ccc(CN2CC=C(c3ccc(F)cc3)CC2)cc1`: the “% Inhibition @ 10 uM” value was 1.54%.

For `O=C(c1ccc(Br)cc1)N(Cc1ccc(Cl)cc1Cl)c1cccc(Cl)c1`, the “% Inhibition @ 10 uM” value is -2.51%.

Regarding `COc1cc(C=O)ccc1OS(=O)(=O)c1ccc(F)cc1`, the “% Inhibition @ 10 uM” value is 3.25%.

`COc1ccc(C2C3=C(O)CCCC3=NC(C)=C2C(=O)Nc2ccccc2F)cc1OC` (centres unmarked): the “% Inhibition @ 10 uM” value is 0.851%.

`Cc1ccc(NC(=O)c2ccc([N+](=O)[O-])o2)cc1C`: the “% Inhibition @ 10 uM” value is -6.12%.

Turning to `COc1ccc(CNC(=O)CN2N=C(c3ccc(Cl)cc3)CCC2=O)c(OC)c1`, the “% Inhibition @ 10 uM” value is on record as -10.8%.

Regarding `COc1cc(/C=C2\C(=N)N3N=C(S(C)(=O)=O)SC3=NC2=O)ccc1OCc1ccc(C)cc1`, the “% Inhibition @ 10 uM” value was -7.21%.

On to `O=C(C1CCCN(S(=O)(=O)c2ccc(Br)s2)C1)N1CCc2ccccc2C1` (centres unmarked), for which the “% Inhibition @ 10 uM” value is listed as -5.88%.

Regarding `CCN1CCCC1CNC(=O)CCCn1nc(C)n2c(cc3sccc32)c1=O` (centres unmarked), the “% Inhibition @ 10 uM” value came out at 1.8%.
